About 14,000 (4.5%) of roughly 310,000 compounds showed an effect of 50% or more. Effects have a minus sign here. The list shows a part of the results.
Target: human ether-à-go-go-related gene (hERG) potassium channel (human, UniProt Q12809)
Test: primary screen, population patch clamp on CHO cells stably expressing hERG
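Note: peak tail current of the secondary pulse compared with the same well before compound.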

Sequence of human ether-à-go-go-related gene (hERG) potassium channel (Q12809 whole entry, looked up): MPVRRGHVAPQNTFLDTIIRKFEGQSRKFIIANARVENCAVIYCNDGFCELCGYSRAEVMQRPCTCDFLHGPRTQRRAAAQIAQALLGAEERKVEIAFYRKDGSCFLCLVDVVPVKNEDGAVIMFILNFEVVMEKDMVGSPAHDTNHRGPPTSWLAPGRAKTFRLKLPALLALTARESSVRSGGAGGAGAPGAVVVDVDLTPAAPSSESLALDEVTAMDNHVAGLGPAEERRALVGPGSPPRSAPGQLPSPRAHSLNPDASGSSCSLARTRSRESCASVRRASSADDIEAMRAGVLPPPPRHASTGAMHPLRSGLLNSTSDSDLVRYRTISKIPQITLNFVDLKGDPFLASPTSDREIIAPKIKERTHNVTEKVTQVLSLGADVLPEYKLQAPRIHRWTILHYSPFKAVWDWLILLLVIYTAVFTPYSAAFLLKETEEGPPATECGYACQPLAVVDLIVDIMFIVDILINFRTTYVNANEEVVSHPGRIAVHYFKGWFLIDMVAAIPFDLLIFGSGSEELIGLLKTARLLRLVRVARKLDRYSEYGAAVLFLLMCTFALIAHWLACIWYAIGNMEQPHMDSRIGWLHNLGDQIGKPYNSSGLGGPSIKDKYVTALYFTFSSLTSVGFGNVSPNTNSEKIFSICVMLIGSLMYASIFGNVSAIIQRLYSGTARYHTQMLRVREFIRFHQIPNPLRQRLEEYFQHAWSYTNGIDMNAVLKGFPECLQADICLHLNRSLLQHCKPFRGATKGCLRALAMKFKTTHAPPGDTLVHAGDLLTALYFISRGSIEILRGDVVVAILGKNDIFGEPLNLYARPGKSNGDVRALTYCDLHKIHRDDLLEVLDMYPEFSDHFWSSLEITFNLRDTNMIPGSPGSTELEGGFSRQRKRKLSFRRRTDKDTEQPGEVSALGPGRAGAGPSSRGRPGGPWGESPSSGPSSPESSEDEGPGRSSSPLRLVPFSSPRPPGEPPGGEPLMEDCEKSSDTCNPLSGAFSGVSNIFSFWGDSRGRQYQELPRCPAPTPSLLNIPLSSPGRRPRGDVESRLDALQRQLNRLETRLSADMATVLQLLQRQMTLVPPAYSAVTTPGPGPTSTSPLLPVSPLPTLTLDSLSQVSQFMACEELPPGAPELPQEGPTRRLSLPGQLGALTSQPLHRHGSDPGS

Structure (SMILES)	hERG current change (%, negative = inhibition) at 10uM [%]
c1ccc(-c2cn(C[C@H]3CC[C@@H]([C@@H]4CC[C@H](Cn5cc(-c6ccccn6)nn5)O4)O3)nn2)nc1	-6.73
Cc1ccc2nc(NC(=O)CSc3nc4c(c(=O)n3C)SC(C)C4)sc2c1 (stereo not shown)	-15
CCOC(=O)c1nnn2c1nc(Nc1cccc(C(F)(F)F)c1)c1ccccc12	12.3
CCOC(=O)c1ccc(Nc2ncnc3nc[nH]c23)cc1	5.27
Cc1nn(-c2ccccc2)c(Cl)c1/C=C1\C(=O)N(C)C(=S)N1C	-6.34
COc1cccc(NC(=O)CN2CCSc3ccccc32)c1	-3.38
Cc1cc(C(=O)OCC(=O)Nc2ccc(F)cc2F)c(C)o1	-2.18
O=C(C1=C(O)C(=O)N(c2ncccn2)C1c1cccc(Cl)c1)c1ccco1 (stereo not shown)	10.4
C/C(=N/NC(=O)c1ccc(Br)o1)c1cccs1	2.61
CN(C)c1ccc(C2Nc3ccccc3C(=O)N2CCN2CCNC2=O)cc1 (stereo not shown)	-0.887
O=C(NCc1ccc2c(c1)OCO2)c1cccc(Cl)c1	-0.96
COc1ccc(/C=N/NC(=O)C(C)n2nnc3ccccc32)cc1OC (stereo not shown)	2.4
CCOc1ccc(C(C(=O)NCC2CCCO2)N(C(=O)c2snc(C(N)=O)c2N)c2ccc3c(c2)OCCO3)cc1 (stereo not shown)	16.7
COc1cc(C(CCN2CCOCC2)c2c(OC)cc(OC)c3c(C)cc(=O)oc23)cc(OC)c1OC (stereo not shown)	-79.3
O=C(Nc1ccccc1)N1CCC2(CC1)OCCO2	4.1
C=CCNC(=S)NNC(=O)c1cccnc1	12.9
O=C(CNC1CCCCC1)Nc1ccc([N+](=O)[O-])cc1C(=O)Nc1ccccc1F	-33.6
C/C(=N\O)c1ccc2c(c1)OCCO2	14.3
O=C(CCSc1ccccc1)Nc1ccccc1C(=O)N1CCCC1	9.14
Cc1c(NC(=O)CSc2ccccc2C(=O)Nc2cccnc2)c(=O)n(-c2ccccc2)n1C	4.72
Cc1ccc(C(=O)N/N=C/c2cn(Cc3ccccc3)c3ccccc23)cn1	3.28
COc1ccc(NC(=O)CSc2nc3ccccc3c(=O)n2C)cc1	4.53

Structure (SMILES)	hERG current change (%, negative = inhibition) at 10uM [%]
O=C(O)/C=C\C(=O)Nc1ccc(F)c(F)c1F	2.16
COc1ccc(N2CCN(S(=O)(=O)c3cn(C)c(=O)n(C)c3=O)CC2)cc1	-4.07
CCC(C)NC(=O)CC(NS(=O)(=O)c1ccc(C)cc1)c1ccc(OC)cc1 (stereo not shown)	-11.9
ClCc1nc2ccccc2n1Cc1ccccc1	10.6
CCc1ccc(CNn2cnnc2SCC(=O)NC(C)(C)C)cc1	-18.2
Cc1ccc(C(=O)OCC(=O)N(C)C2CCS(=O)(=O)C2)cc1S(=O)(=O)N1CCCCC1 (stereo not shown)	-16.5
CCC1(C)Cc2ccccc2-c2nc[nH]c(=O)c21 (stereo not shown)	11.3
COC(=O)[C@@H](Cc1c[nH]c2ccccc12)NC(=O)c1ccc2c(c1)OCO2	5.01
Cc1ccc(NC(=O)C(C)SCC(=O)Nc2ccc(F)cc2)cc1S(=O)(=O)N1CCOCC1 (stereo not shown)	-7.66
S=C(Nc1cccc(Cl)c1)NC1CCCCC1	7.58
O=C(c1ccc(Cl)cc1)N1N=C(c2ccccn2)CC1(O)C(F)(F)F (stereo not shown)	-13.6
CCOC(=O)C1CCN(C(=O)c2ccccc2NS(=O)(=O)c2ccccc2)CC1	-15.8
COc1cc(NC(=O)CCc2nnc3ccc(N4CCC5(CC4)OCCO5)nn23)cc(OC)c1	9.18
CC(C)C(=O)NC(CC(=O)O)c1ccccc1 (stereo not shown)	-1.68
Cc1ccc(CNC(=O)CN(c2ccc(C)cc2)S(=O)(=O)c2c(C)n[nH]c2C)cc1	-26.1
O=C(NNC(=O)C12CC3CC(CC(Cl)(C3)C1)C2)c1csc(N2CCOCC2)n1	-1.63
C=C[C@]1(C)C=C2CCC3[C@](C)(CCC[C@@]3(C)C(=O)O)C2CC1 (stereo partly shown)	13.3
COc1ccc2c(c1)nc(N)n2Cc1ccccc1	-23.1
CN(CCc1ccccc1)C1CCCN(C(=O)Cn2cccn2)C1 (stereo not shown)	-1.49
COc1ccc(C)cc1NC(=O)c1c(C)nn(Cc2ccccc2)c1Cl	-0.515
Cc1ccn2c(=O)nc(SCC(=O)NCCc3ccccc3)nc2c1	-18.8
COc1ccc(NC(=O)c2c(C(F)(F)F)nn(C)c2SCc2ccccc2Cl)cc1	5.73

Structure (SMILES)	hERG current change (%, negative = inhibition) at 10uM [%]
CC(C)Nc1nc2cccnc2s1	16.1
CCOC(=O)C(=NC(C)CC)NNc1ccc(Br)cc1 (stereo not shown)	19.1
CCOC(=O)N1CCN(Cc2c(O)ccc3ccccc23)CC1	-1.36
C=CCNC(=O)c1cc2nc(C3CC3)cc(C(F)F)n2n1	2.36
CC(C)(C)CC(=O)Nc1nn[nH]n1	24.3
COc1ccc(NC(=O)CSc2nnc(Cc3cccn3C)n2CCc2ccccc2)c(OC)c1	-2.48
CCCOc1ccc(C2C(C(=O)c3ccco3)=C(O)C(=O)N2CCCn2ccnc2)cc1 (stereo not shown)	-6.76
O=C(Nc1nnc(COc2ccccc2)s1)c1ccco1	10.6
COc1ccccc1-n1c(=O)c(C#N)c(-c2ccc([N+](=O)[O-])cc2)c2cc(C(=O)c3ccccc3O)cnc21	4.68
CN(Cc1ccc(F)cc1)C(=O)c1ccc2c(c1)NC(=O)CS2	-44.4
CC1=C(C#N)CCC(=O)N1Cc1c(F)cccc1Cl	6.17
Fc1ccc(-c2nc3c(-c4ccc(F)cc4)cnn3cc2CCN2CCOCC2)cc1	-14.2
S=C(NCc1ccccn1)Nc1ccccc1	16.3
C(=N\c1c(-c2ccccc2)nc2n1CCS2)/c1ccccc1	11.4
CCc1nnc(NC(=O)c2cc(-c3ccncc3)nc3ccccc23)s1	10
CCCc1n(CC)c2ccccc2[n+]1CC(O)COC1CCCCC1.[I-] (stereo not shown)	-13.6
O=C1CS/C(=C/C(=O)c2cccc(Cl)c2)N1	-2.13
CC(=O)O.Cc1nc(NCCc2ccc(F)cc2)c(C#N)c(C)c1[N+](=O)[O-]	-28.1
CC(C)C(=O)N(Cc1ccccc1)c1ccccn1	7.57
CC(NC(=O)C1CCN(S(=O)(=O)c2cc([N+](=O)[O-])ccc2Cl)CC1)c1ccccc1 (stereo not shown)	11.5
Cc1cc(Cl)ccc1OCC(=O)NCCOc1nc(N2CCCCC2)nc(N2CCOCC2)n1	-40
COCCn1c(=O)[nH]c2cc(C(=O)NC3CCCCCC3)ccc2c1=O	-15.3

Structure (SMILES)	hERG current change (%, negative = inhibition) at 10uM [%]
COC(=O)C1=C(c2ccc(-c3ccccc3)c(F)c2)C[C@@H]2CC[C@H]1N2C(=O)NCc1ccco1	-16.8
CCc1ccc(C2CC(c3ccccc3C)n3nc(N)nc3N2)cc1 (stereo not shown)	-1.57
CC(=O)c1cccc(NC(=O)c2ccc(N(C)S(C)(=O)=O)cc2)c1	9.35
O=C(COC(=O)c1ccc(NS(=O)(=O)c2cccs2)cc1)NCc1ccco1	14.8
COC(=O)c1ccc2c(=O)n(CCCCCC(=O)NC(C)C)c(=O)[nH]c2c1	-31.2
CC(=O)Nc1cc(C(=O)OCC(=O)c2ccccc2)ccc1C	9.31
CCOc1cc(NC(=O)c2ccccc2C)c(OCC)cc1NC(=O)C1=Cc2ccccc2OC1	9.99
O=Cc1c(C(=O)O)n(Cc2ccccc2Cl)c2ccccc12	24.3
COc1cccc(NC(=O)C2CCN(S(=O)(=O)c3ccc4c(c3)NC(=O)CO4)CC2)c1	16.2
CNCc1cn2cc(Cl)ccc2n1	-6.71
CC1Cc2ccccc2N1C(=O)COC(=O)c1ccccc1NCCO (stereo not shown)	1.36
COc1cccc(OCc2cc(C(=O)N(Cc3ccccc3)CC3CC3)no2)c1	7.76
CC(=O)c1ccc(NC(=O)c2cc(CC(C)C)nc3ccccc23)cc1	9.23
CCC(C)NC(=O)COc1ccc(OCc2ccccc2)cc1 (stereo not shown)	5.21
CN(C)C(=O)NC1c2ccccc2-c2ccccc21	16.7
Clc1nc(Cl)nc(-c2cn(-c3ccccc3)c3ccccc23)n1	8.76
Cc1nn(C)c(C)c1C(C)NC(=O)c1cc(COc2ccc(F)c(F)c2)on1 (stereo not shown)	-14.4
CN(C)c1ccncc1C(=O)Nc1ccc(F)cc1F	-24.9
CC(C)(C)NC(=O)COC(=O)CNC(=O)c1cc(Cl)cc([N+](=O)[O-])c1	13.1
COC(CSc1ncnc2c1oc1nc3c(cc12)COC(C)(C)C3)OC	-15.6
Cc1ccc(OCCCC(=O)NC(C)c2ccccc2)cc1 (stereo not shown)	6.49
CC(Oc1ccccc1)C(=O)N=C1SC2CS(=O)(=O)CC2N1Cc1ccccc1 (stereo not shown)	-11.4

Reference: publication PMC4336329 (PLoS ONE, 2015)
